Laboratory results taken from the supplement of paper PMC11417369.
This is one part of the list.

Tested on: PfAP2-HC AP2 domain (GST-tagged)
Experiment: gcPBM binding intensity (ln(normalized median fluorescence intensity)); higher = stronger DNA binding
Method in brief: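 GST-fused DNA-binding domains of P. falciparum, expressed in E. coli, were applied at about 25 μg on average for 1 h to an Agilent 4 × 180k array of primer-extended double-stranded 36-bp intergenic genomic probes and negative controls. Binding intensity is the highest Masliner-normalised natural-log median intensity across replicate spots of either probe orientation, measured with Alexa488 anti-GST antibody and a 488 nm scan.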

Sequence	gcPBM binding intensity (ln)
GAAAATATTAAATGAAGTACAATATTTATGTTACTT [XGTACX_site8737]	9.48
TTTATATTTCTTCATCGTACACATAAAAAAAAAAAA [XGTACX_site3244]	9.24
ATACTCACGAAACACACACACAATATATATATATAT [CACACA_site4136]	10.1
CATTAAATATATAAATGTACAAATATATTTTTCAAA [XGTACX_site4429]	9.38
TTGTTCATATTTTTTATTGTGTTAATATTTATAAAA [GTGCAC_negctrl_site423]	9.51
TTAATGTAGAGAAAATGTACATTTTATTAAAACAAT [XGTACX_site6376]	9.77
CCTATTTATAAATACACACACATATATAAATAAATA [CACACA_site5629]	10.1
AAAAAACTATTATGTGCATGCACAAGTCAGGTAAAT [TGCATGCA_site791]	9.93
AAAAAGAAATCCAATACACACCTTCAAAATGGGTAT [CACACA_site4978]	9.81
TATTTATAGATATATACACACATATTTATATTTATA [CACACA_site6441]	9.78
TTTTTTATTTTTGCGTGTACATAATAATGAATCTTC [XGTACX_site8077]	9.56
GAAATTTCCCATATTACACACATACTATGATATATA [CACACA_site5987]	10
TTTTAAATATATGTGCTATTATATTAAGAGATGTAA [GTGCAC_negctrl_site560]	9.29
ATCTATAAATTTCCACGTACATATATATATATATAT [XGTACX_site4502]	9.83
CCTCTTTTTATTCTCACACACGTTTATATATAAAGT [CACACA_site4992]	10.1
TTATAAATGTATTTATGTACATATAAATATATATAA [XGTACX_site2970]	9.36
AAAAGAAAATAAGAAACACACAAAAATATATAAAAA [CACACA_site3697]	9.99
TTCTTTGCTTTTCAAACACACAAAAGTTATTATATT [CACACA_site521]	9.89
ATATAAATCAAAAACGCACACATAAATATTTATATA [CACACA_site2442]	9.95
ATAAAAGAATAAATAAAACACATATATATATATATA [XGTACX_negctrl_site31]	9.47
TTTTTTTTTTTTTTGGTGCACATAGAAATTCTAAAA [GTGCAC_site9809]	9.22
GCACATTTTTTTATCACACATATAATTACAATATAA [CACACA_site5585]	9.75
TACGTATGCCTGTGATGTACATATATATATACATAC [XGTACX_site4728]	9.9

Sequence	gcPBM binding intensity (ln)
TTTCGGTTTTTTTTTATTTTTTTTTTTTTATTATTT [CACACA_negctrl_site335]	9.65
AAAAGATGCGCATACACACAGATGAATAACAAAAAA [CACACA_site6865]	10.1
ATAATATAATTTTGCAGTACCCAAAAAACAAAATAA [XGTACX_site4827]	9.62
AATATGATATATATATGTACATATATATAATATAAT [XGTACX_site3072]	9.68
AAAGTATAATAATACACACACTTTAAAAGTTAAATG [CACACA_site7550]	10.4
ATATAGGTAAAAAGTATACACACGTTGACACATTCT [CACACA_site1199]	9.88
TCATTATATCATGGTAGTACTCATTAATAATACGTA [XGTACX_site8701]	9.51
AATATTATTTAGGAGCGTACGTTTTATTTACATATT [XGTACX_site5188]	9.78
TATATATTTTTTAAACCACACACAATATAGAGTATA [CACACA_site8106]	9.9
GTTAATAAAAATATATGTACATAATTATTATGAAAA [XGTACX_site3030]	9.63
GGCATAAATATATGCACACACAAAAAAAAAAAAAAA [CACACA_site59]	9.85
TTTTTTTTTTTAAAAAGTACACAATTAATTAATATA [XGTACX_site8494]	9.28
ATATTGTTTTATATAGAACACACATAAAAATATATA [CACACA_site8314]	9.75
TTATTGAAAAAAGAACAAAAAAAAAAAGAAAAATTA [XGTACX_negctrl_site438]	9.23
TATAAACATTATAAATGTACAAATATATATATATAT [XGTACX_site3218]	9.73
ATATATATATATATATGTACTTATTTGAATACTAAA [XGTACX_site2330]	9.57
AAAATAAGAAATAGATGTACTTATAAATAAATACAA [XGTACX_site4441]	9.64
TGACTATGTATATTTAGTACATAAAATCAATAATAT [XGTACX_site4082]	9.55
AAGGGTTGCCTGTGTAGTACATATATATATATATAT [XGTACX_site8555]	9.96
TCATTCATAAAAATAACACACAAAAAAAAAAAAAAA [CACACA_site1800]	9.62
AAATTATATTATTGAACACACGTTTGGTAATGTTTT [CACACA_site5469]	9.71
AAATATAAGAAAAAGGTGCTTTTTTTTTTTTTTTTT [GTGCAC_site9700]	9.55
AGGGAAAAAAAAAAAGTGCATTTGTATTAAATGAAT	9.49

Sequence	gcPBM binding intensity (ln)
GTAAACAAAATATTTTGTACATATTTTATATTATTT [XGTACX_site7837]	9.71
GGACATTTTTATAAGGTGCACGGTTTTGATATTACT [GTGCAC_site9892]	9.67
ATAATGATATATAGTACACACAAAAATGGAAGTAAA [CACACA_site7541]	10.1
AACCACATACATATAACACACATATACAATATATAT [CACACA_site8607]	10.2
AATTTGATAATATCATGTACATGAAAGAATTCATGA [XGTACX_site8463]	9.44
GTTAAAAGAAAAATATGTACATAAAAAAATTAGAAA [XGTACX_site578]	9.75
CTCTTGTTTCCATATAGTACGTAATAATATATACAA [XGTACX_site2428]	9.55
AAGATGGTAAAGAATTGTACGCGCATATATATATTT [XGTACX_site3904]	9.93
TTTTCAATTAAAAAAAAATTATATTTTATTATTACA [CACACA_negctrl_site142]	9.32
TATATATATATATGATGTACACATTTTATTATTTGT [XGTACX_site1147]	10.1
TACATAAATTAAAACACACACACACCCAAAAAAAAA [CACACA_site2261]	10.5
AAAAAATAAAAAGATACACACATATGTATAATATAC [CACACA_site1496]	10
GTGTATATTATTTTATCACACATGTACATATGTTAA [CACACA_site5473]	9.79
AATAAAAAAATATGAAATTATGACATATAGCATTTG [TGCATGCA_negctrl_site160]	9.65
TTTTTTGTTAAGTTGGTGCAAACAATAGTTATTGAC	9.5
TATATCTACTACACACGTACACAAAATAAGATACCT [XGTACX_site7886]	10.1
TGTAGTCTGGAGAAGAGTACATAGTATCTGGTAGCT [XGTACX_site2029]	9.58
GAATTGTATTGGTACTGTACAATTAAATTAAAAAAA [XGTACX_site1891]	9.65
AAAAAAAAAAAACACACACACACACCCATATATAAA [CACACA_site1170]	11.1
ACATAAAATTATTATACATGCATATTTAATTTTTTC [TGCATGCA_site353]	9.52
AAAAATATAAACAAACGTACGAAGTGATGATATATT [XGTACX_site2242]	9.96
TATTATATTTTTATTTGTACGTAAAATTAAGTTATG [XGTACX_site2405]	9.52
AATAATTAACAAAAAAAAAAAAAAAAAAAAAAAAAA [GTGCAC_negctrl_site255]	8.75

Sequence	gcPBM binding intensity (ln)
TATAAATAAATATGTACACACATATATACCTTTCAT [CACACA_site7291]	9.85
TATGTATTATATATTTGTACTCATTCTAATTCCTTC [XGTACX_site7294]	9.63
TATCTTTATATATAGTGTACACATTAAACAAATCTC [XGTACX_site7381]	9.58
TATTAATGATAAGAATATTTTATATGATACATGCAT [CACACA_negctrl_site923]	9.66
TTTAGTTTTTATATAGCACACATATTGTGATTATGT [CACACA_site8316]	9.86
AATTTATAAAAGAAGAGGACACATATAAATATAAAT [XGTACX_site59]	9.73
ATTTAAAAAAAAACGGAATTTTTTTTTTTTTTAAAG [XGTACX_negctrl_site91]	9.28
ACATATATGTATAATACACACACTAATATATAATTG [CACACA_site1966]	10
ATATTCATATATTTACGTACATACATTTATATATTT [XGTACX_site7644]	10
TATATTAATGTTCATAGTACGTATGATTAGGAAAAA [XGTACX_site616]	9.6
GGAAAGACAGTTCACAGTACCCAGGAAATCTGCGGA [XGTACX_site4933]	9.62
ACAAAATATATAGACACACAAACACAAATATGTTTT [CACACA_site3016]	9.95
TTAATATGAATTATTACATGCAACTAAATATATTTA [TGCATGCA_site490]	9.52
TAATACAGATTAAAAGGTACACTTATTTGGTATTAT [XGTACX_site4966]	9.71
TGTATATCACATGAGAGGTGGAGATGGGGATAAATA [CACACA_negctrl_site1148]	9.93
ATACAATTCTTACATTGTACTTTTTTTTTTTATCAC [XGTACX_site6327]	9.69
TACAACCTTTAGACAAGTACAAGAATTATATGTGGC [XGTACX_site4581]	9.72
ACTAAAAAAATAAACACACAGATTTATATAATATAT [CACACA_site4884]	9.83
TCTATACCTATTCTTACACACATATGTATAAATATA [CACACA_site6407]	9.85
TTGACAACTCTTTTCATACACACAAAAAAAAAAAAA [CACACA_site2362]	9.5
